Results on one molecule are retold here after the supplement of paper PMC8728848.

The list shows a part of the results.

Common to all, as to assay: glycan array binding signal (z-score within array); higher = stronger binding
Common to all, as to conditions: glycan notation: IUPAC condensed, linker removed

Assay [1] deals with Gal(b1-4)GlcNAc(b1-2)Man(a1-6)[GlcNAc(b1-2)Man(a1-3)]Man(b1-4)GlcNAc(b1-4)GlcNAc. The essentials: (§1)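 Glycan array data came from 3228 arrays in the Consortium for Functional Glycomics database, and only arrays with an available protein sequence were kept. Glycan names were put into IUPAC-condensed notation, and columns mapping to the same glycan were averaged. The binding signal is a within-array Z-score, averaged across arrays of one protein sequence run at different concentrations or buffers and across linkers. A negative Z-score can be read as non-binding.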

In assay [2] the target is Gal(b1-4)GlcNAc(b1-2)Man(a1-6)[Man(a1-3)]Man(b1-4)GlcNAc(b1-4)GlcNAc. Put shortly:
as §1

Assay [3] concerns the target Gal(b1-4)GlcNAc(b1-2)[Gal(b1-4)GlcNAc(b1-4)]Man(a1-3)[Gal(b1-4)GlcNAc(b1-2)Man(a1-6)]Man(b1-4)GlcNAc(b1-4)GlcNAc. Put shortly:
as §1

The target of assay [4] is Gal(b1-4)GlcNAc(b1-2)[Gal(b1-4)GlcNAc(b1-4)]Man(a1-3)[Gal(b1-4)GlcNAc(b1-2)[Gal(b1-4)GlcNAc(b1-6)]Man(a1-6)]Man(b1-4)GlcNAc(b1-4)GlcNAc. The essentials:
as §1

In assay [5] the target is Gal(b1-4)GlcNAc(b1-2)[Gal(b1-4)GlcNAc(b1-4)]Man(a1-3)[GlcNAc(b1-4)][Gal(b1-4)GlcNAc(b1-2)Man(a1-6)]Man(b1-4)GlcNAc(b1-4)GlcNAc. Put shortly: as §1
Assay [6] concerns the target Gal(b1-4)GlcNAc(b1-2)[Gal(b1-4)GlcNAc(b1-4)]Man(a1-3)[GlcNAc(b1-4)][Gal(b1-4)GlcNAc(b1-2)[Gal(b1-4)GlcNAc(b1-6)]Man(a1-6)]Man(b1-4)GlcNAc(b1-4)GlcNAc. The essentials:
as §1

Assay [7] concerns the target Gal(b1-4)GlcNAc(b1-2)[Gal(b1-4)GlcNAc(b1-6)]Man(a1-6)[Gal(b1-4)GlcNAc(b1-2)Man(a1-3)]Man(b1-4)GlcNAc(b1-4)GlcNAc. The essentials:
as §1

Assay [8] deals with Gal(b1-4)GlcNAc(b1-2)[Gal(b1-4)GlcNAc(b1-6)]Man(a1-6)[Gal(b1-4)GlcNAc(b1-2)Man(a1-3)]Man(b1-4)GlcNAc(b1-4)[Fuc(a1-6)]GlcNAc. The essentials:
as §1

Assay [9] addresses Gal(b1-4)GlcNAc(b1-2)[Gal(b1-4)GlcNAc(b1-6)]Man(a1-6)[GlcNAc(b1-4)][Gal(b1-4)GlcNAc(b1-2)Man(a1-3)]Man(b1-4)GlcNAc(b1-4)GlcNAc. The essentials:
as §1

The target of assay [10] is Gal(b1-4)GlcNAc(b1-2)[Gal(b1-4)GlcNAc(b1-6)]Man(a1-6)[GlcNAc(b1-4)][Gal(b1-4)GlcNAc(b1-2)[Gal(b1-4)GlcNAc(b1-4)]Man(a1-3)]Man(b1-4)GlcNAc(b1-4)[Fuc(a1-6)]GlcNAc. Put shortly: as §1
For assay [11], the target named is Gal(b1-4)GlcNAc(b1-3)Gal(b1-3)GalNAc. The essentials:
as §1

Assay [12] has as its target Gal(b1-4)GlcNAc(b1-3)Gal(b1-3)GlcNAc. The essentials: as §1
Assay [13] concerns the target Gal(b1-4)GlcNAc(b1-3)Gal(b1-4)Glc. Put shortly: as §1
Assay [14] addresses Gal(b1-4)GlcNAc(b1-3)Gal(b1-4)GlcNAc. Put shortly: as §1
Assay [15] has as its target Gal(b1-4)GlcNAc(b1-3)Gal(b1-4)GlcNAc(b1-2)Man(a1-3)[Gal(b1-4)GlcNAc(b1-3)Gal(b1-4)GlcNAc(b1-2)Man(a1-6)]Man(b1-4)GlcNAc(b1-4)GlcNAc. The essentials: as §1
Assay [16] deals with Gal(b1-4)GlcNAc(b1-3)Gal(b1-4)GlcNAc(b1-2)Man(a1-3)[Gal(b1-4)GlcNAc(b1-3)Gal(b1-4)GlcNAc(b1-2)Man(a1-6)]Man(b1-4)GlcNAc(b1-4)[Fuc(a1-6)]GlcNAc. The essentials:
as §1

Assay [17] concerns the target Gal(b1-4)GlcNAc(b1-3)Gal(b1-4)GlcNAc(b1-2)[Gal(b1-4)GlcNAc(b1-3)Gal(b1-4)GlcNAc(b1-6)]Man(a1-6)[Gal(b1-4)GlcNAc(b1-3)Gal(b1-4)GlcNAc(b1-2)Man(a1-3)]Man(b1-4)GlcNAc(b1-4)GlcNAc. Put shortly: as §1
Assay [18] concerns the target Gal(b1-4)GlcNAc(b1-3)Gal(b1-4)GlcNAc(b1-2)[Gal(b1-4)GlcNAc(b1-3)Gal(b1-4)GlcNAc(b1-6)]Man(a1-6)[Gal(b1-4)GlcNAc(b1-3)Gal(b1-4)GlcNAc(b1-2)Man(a1-3)]Man(b1-4)GlcNAc(b1-4)[Fuc(a1-6)]GlcNAc. The essentials:
as §1

The target in assay [19] is Gal(b1-4)GlcNAc(b1-3)Gal(b1-4)GlcNAc(b1-3)Gal(b1-4)GlcNAc. The essentials: as §1
Assay [20] concerns the target Gal(b1-4)GlcNAc(b1-3)Gal(b1-4)GlcNAc(b1-3)Gal(b1-4)GlcNAc(b1-2)Man(a1-3)[Gal(b1-4)GlcNAc(b1-3)Gal(b1-4)GlcNAc(b1-3)Gal(b1-4)GlcNAc(b1-2)Man(a1-6)]Man(b1-4)GlcNAc(b1-4)GlcNAc. Put shortly: as §1
For assay [21], the target named is Gal(b1-4)GlcNAc(b1-3)Gal(b1-4)GlcNAc(b1-3)Gal(b1-4)GlcNAc(b1-2)Man(a1-3)[Gal(b1-4)GlcNAc(b1-3)Gal(b1-4)GlcNAc(b1-3)Gal(b1-4)GlcNAc(b1-2)Man(a1-6)]Man(b1-4)GlcNAc(b1-4)[Fuc(a1-6)]GlcNAc. Put shortly: as §1
In assay [22] the target is Gal(b1-4)GlcNAc(b1-3)Gal(b1-4)GlcNAc(b1-3)Gal(b1-4)GlcNAc(b1-2)[Gal(b1-4)GlcNAc(b1-3)Gal(b1-4)GlcNAc(b1-3)Gal(b1-4)GlcNAc(b1-6)]Man(a1-6)[Gal(b1-4)GlcNAc(b1-3)Gal(b1-4)GlcNAc(b1-3)Gal(b1-4)GlcNAc(b1-2)Man(a1-3)]Man(b1-4)GlcNAc(b1-4)[Fuc(a1-6)]GlcNAc. Put shortly: as §1

B1: LFA (Limax flavus) (protein)
chain: MSVLFLAASFLLLASFELVAAQGCPRQDPGDWIVIQRRLNADVNFYRGWADYKHGFGDLRCNFWLGNEKIHQLTSHGRYKLRVEFTFNNKSYFAEYSTFKILGEADKYKLQVGGYSGNAGDALTFHNGMAFSTNDRDNDADSIDCAKVYHGAWWYKTCHESNLNGKWGSKKYGEGLNWKAKTTFTATATSSLLKIKALK
As for B1, the “glycan array binding signal (z-score)” value was -0.282 in assay [1]; 0.098 in assay [2]; -0.263 in assay [3]; -0.175 in assay [4]; -0.021 in assay [5]; -0.008 in assay [6]. Also, the “glycan array binding signal (z-score)” value was -0.016 in assay [7]; -0.115 in assay [8]; -0.016 in [9]; -0.186 in assay [10]; -0.152 in assay [11]; -0.155 in assay [12]. The “glycan array binding signal (z-score)” value in assay [13] is -0.18; in assay [14], -0.235; in [15], 2.97; in [16], 0.674; in assay [17], 0.372; in assay [18], -0.084. Moreover, the “glycan array binding signal (z-score)” value in [19] was -0.05; in [20] it was 2.45; in assay [21] it was 0.063; in [22] it was 0.448.
